Screen size: about 360,000 compounds; about 7,500 (2.1%) were called active. The inconclusive results got no clear call from the source; some entries with a clear call stand among them for comparison. Calls follow the shape of the dose curve; as a rule, active = well fitted cell-killing curve with a large enough effect; inconclusive = small, poorly fitted or top-dose-only effect, or effect the other way, or another doubt; inactive = no such curve, though single readings can be large or run the other way. Potencies of inconclusive entries are left out as doubtful fits.
Assay: qHTS for induction of synthetic lethality in tumor cells producing 2HG: qHTS for the HT-1080-IDH1KD cell line
Settings: HT-1080 IDH1 knockdown viability, ATP luminescence, 48 h; series mostly up to 46.1 µM
In short: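 Cytotoxicity counter-line: IDH1KD HT-1080, 48 h, CellTiter-Glo. Curves classed by r2, magnitude and activity.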
Potency is read from the fitted curve at half-maximal effect; tags tell the direction and shape of the fitted curve.

Row | Structure (SMILES) | Potency
1 | O=C(CN1CCN(Cc2ccccc2)CC1)Nc1cccc(C(F)(F)F)c1 | inconclusive [cytotoxic, single point]
2 | O/N=C(\c1ccc(Cl)cc1Cl)c1ncc(C(F)(F)F)cc1Cl | inconclusive [cytotoxic, single point]
3 | CCC1NC(=O)c2cc3ccccc3cc2-n2c1nc1ccc(OC)cc1c2=O (configuration not stated) | inactive
4 | N=c1n(CCCOc2ccc(Br)cc2)c2ccccc2n1CC(N)=O | inconclusive [cytotoxic, single point]
5 | O=C(Nc1ccc(F)cc1)C(c1cccc(F)c1)N1CCN(c2cccc(C(F)(F)F)n2)CC1 (configuration not stated) | inconclusive [cytotoxic, single point]
6 | CCCCC(=O)N(C)c1c(CC)nc2c(OCc3cccc(Cl)c3)cccn12 | inconclusive [cytotoxic, single point]
7 | Cc1ccccc1C(=O)N1CCN(c2ccc(NC(=O)c3ccco3)cc2)CC1 | inactive
8 | COc1cccc(C(=O)N2C(C(C)C)COc3cc(Br)ccc3S2(=O)=O)c1 (configuration not stated) | inconclusive [cytotoxic, single point]
9 | CC[C@H](C)[C@@H]1OC(=O)[C@@H](C)[C@@H](CC)NC(=O)[C@H](C)N(C)C(=O)C(C)(C)C(=O)C(C)NC(=O)[C@H](Cc2ccccc2)N(C)C(=O)[C@H](C(C)C)N(C)C(=O)CNC(=O)[C@H](CC(C)C)N(C)C(=O)CNC1=O (some centres not stated) | active: 0.92 µM
10 | N#Cc1c(C(F)(F)F)cc(=O)n2c1[nH]c1ccccc12 | active: 25.9 µM
11 | Cc1cc2nc(SCC(=O)N(C)C)c3c(c2cc1C)CCCC3 | inconclusive [cytotoxic, single point]
12 | Cn1c(CNC(=O)c2cccs2)nnc1SCC(=O)Nc1ccc(Cl)cc1 | inconclusive [cytotoxic, partial curve]
13 | CCN(CCNC(=O)C1CCN(Cc2nc(-c3ccc(Cl)cc3)oc2C)CC1)c1ccccc1 | inconclusive [cytotoxic, single point]
14 | COc1ccc(NC(=O)COc2cc(C)cc(C)c2)cc1S(=O)(=O)N1CCCCC1 | inconclusive [cytotoxic, partial curve]
15 | Cc1ccc2[nH]c3c(c2c1)CCCC3NC(=O)CCl (configuration not stated) | active: 9.2 µM
16 | COC(=O)c1cccc(CN2C(=O)C(C)Sc3cc(Cl)ccc32)c1 (configuration not stated) | inconclusive [cytotoxic, single point]
17 | COc1ccc(/C=N/NC(=O)c2cccc([N+](=O)[O-])c2)cc1OC(=O)c1ccccc1 | inconclusive [cytotoxic, single point]

From PubChem BioAssay AID686971 (National Center for Advancing Translational Sciences (NCATS), 2013)
